In publication PMC4336329 (PLoS ONE, 2015):
The whole screen tested about 310,000 compounds, of which about 14,000 (4.5%) showed an effect of 50% or more. Effects have a minus sign here. The list shows a part of the results.

Target: human ether-à-go-go-related gene (hERG) potassium channel (human, UniProt Q12809)
Assay: primary screen, population patch clamp on CHO cells stably expressing hERG
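Further: peak tail current of the secondary pulse compared with the same well before compound.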

Chain of human ether-à-go-go-related gene (hERG) potassium channel (Q12809 whole entry, looked up): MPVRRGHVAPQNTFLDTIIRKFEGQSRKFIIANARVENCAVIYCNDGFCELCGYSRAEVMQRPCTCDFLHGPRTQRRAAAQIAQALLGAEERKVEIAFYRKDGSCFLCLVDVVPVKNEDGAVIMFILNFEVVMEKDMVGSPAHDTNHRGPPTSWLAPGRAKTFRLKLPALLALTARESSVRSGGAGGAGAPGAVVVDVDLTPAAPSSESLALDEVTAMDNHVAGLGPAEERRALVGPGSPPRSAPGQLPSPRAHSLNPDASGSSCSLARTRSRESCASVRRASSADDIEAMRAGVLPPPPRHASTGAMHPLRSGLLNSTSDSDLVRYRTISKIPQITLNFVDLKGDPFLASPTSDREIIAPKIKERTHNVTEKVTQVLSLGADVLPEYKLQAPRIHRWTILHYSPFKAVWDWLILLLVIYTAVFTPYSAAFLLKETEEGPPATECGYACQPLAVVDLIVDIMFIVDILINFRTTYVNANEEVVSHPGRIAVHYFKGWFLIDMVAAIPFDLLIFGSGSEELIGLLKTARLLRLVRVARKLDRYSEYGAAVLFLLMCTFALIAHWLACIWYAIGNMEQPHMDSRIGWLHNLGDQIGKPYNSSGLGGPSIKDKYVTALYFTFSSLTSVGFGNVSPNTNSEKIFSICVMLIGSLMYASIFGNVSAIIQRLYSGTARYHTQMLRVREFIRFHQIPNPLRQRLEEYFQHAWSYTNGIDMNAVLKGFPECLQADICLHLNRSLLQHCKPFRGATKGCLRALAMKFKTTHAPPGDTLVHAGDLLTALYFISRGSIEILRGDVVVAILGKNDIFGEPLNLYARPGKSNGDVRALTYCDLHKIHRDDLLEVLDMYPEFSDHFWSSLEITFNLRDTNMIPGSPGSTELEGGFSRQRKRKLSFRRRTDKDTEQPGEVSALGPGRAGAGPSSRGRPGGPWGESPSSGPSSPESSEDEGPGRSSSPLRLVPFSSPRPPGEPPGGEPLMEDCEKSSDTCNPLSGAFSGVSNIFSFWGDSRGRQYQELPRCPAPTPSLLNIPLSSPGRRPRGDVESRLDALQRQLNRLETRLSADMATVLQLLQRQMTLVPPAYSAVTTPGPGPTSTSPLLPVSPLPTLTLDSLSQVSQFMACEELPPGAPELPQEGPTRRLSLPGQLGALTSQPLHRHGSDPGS

Row | Structure (SMILES) | hERG current change (%, negative = inhibition) at 10uM
1 | C/C(=N/NC(=O)c1cccs1)c1cccs1 | 11.2%
2 | Cn1c(C(=O)O)c(CC(=O)Nc2ccccc2F)c2ccccc21 | 0.623%
3 | Cc1cccc(NC(=O)c2cccnc2)c1C | 15.1%
4 | CCOC(=O)Cc1csc(NC(=O)CCC(=O)O)n1 | 23.1%
5 | COc1ccc(NC(=O)CN(C)C(=O)Cc2c[nH]c3ccccc23)cc1 | -5.97%
6 | COC(C(=O)N1CCC(CCC(=O)Nc2ccccc2)CC1)c1ccccc1 (stereo not shown) | -6.28%
7 | COc1ccc([N+](=O)[O-])cc1NC(=S)NC(NC(=O)Cc1ccc(OC)c(OC)c1)C(Cl)(Cl)Cl (stereo not shown) | 0.195%
8 | C/C(=N\Nc1ccc([N+](=O)[O-])cc1)c1ccc(N2CCOCC2)cc1 | 4.46%
9 | COc1cccc(-c2n[nH]c3c2CCC3)c1 | -5.81%
10 | O=S(=O)(NCc1cccnc1)c1ccc2ccccc2c1 | 8.09%
11 | COc1cc2cc(C[C@H](C)O)oc(=O)c2cc1OC | 16.7%
12 | Cc1cccc(C(=O)NNC(=O)C2CC2)c1 | -5.33%
13 | O=C(c1cc(Cl)nc2ccccc12)N(Cc1nnc(-c2ccccc2Cl)o1)C1CC1 | -21.1%
14 | CC1Cc2ccccc2N1Cc1cc(=O)n2ccsc2n1 (stereo not shown) | 10.6%
15 | O=Cc1cc2ccccc2nc1SCc1ccc(Cl)cc1 | -1.55%
16 | O=C(CSc1nnc(COc2ccccc2)o1)NCCc1ccccc1 | -1.41%
17 | O=C(O)C(=O)/C(=C\c1cccc(Cl)c1)c1ccc2ccccc2n1 | 13.8%
18 | CN(/N=C/c1ccccc1O)C(=S)c1ccccc1 | -3.8%
19 | O=C(Nc1cccc2ncccc12)c1ccc(-c2ccc(Cl)cc2Cl)o1 | -7.06%
20 | CC(C)(C)n1nnnc1C(c1ccncc1)N1CCCCCC1 (stereo not shown) | -8.52%
21 | CCCn1c(N)c(C(=O)CSc2nnc(C3CC3)n2Cc2ccccc2)c(=O)n(C)c1=O | -11.3%
22 | COc1ccc(C(=O)O)cc1S(=O)(=O)Nc1ccccc1-c1ccccc1 | 5.67%

Row | Structure (SMILES) | hERG current change (%, negative = inhibition) at 10uM
23 | NC(=O)c1nsc(C(=O)N(c2cccc(F)c2)C(C(=O)NCC2CCCO2)c2cccs2)c1N (stereo not shown) | 6.66%
24 | CCOC(=O)Nc1ccc(S(=O)(=O)N(C)C(C)C)cc1 | -10.6%
25 | Cc1ccc(S(=O)(=O)N2CCC(C(=O)NCCN3CCCCCC3)CC2)cc1 | -18.3%
26 | CC(=O)Oc1cccc(N2C(=O)C3C4C=CC(C4=C(C)C)C3C2=O)c1 (stereo not shown) | 15.1%
27 | Cc1nc2ccccc2c2nc(NC(=O)C(F)(F)F)nn12 | -13.5%
28 | O=C(C1CC(=O)N(c2ccc3c(c2)OCCO3)C1)N1CCN(c2ccccc2O)CC1 (stereo not shown) | -6.34%
29 | COc1ccc(OC)c(NC(=O)C(Sc2ccccc2)c2ccccc2)c1 (stereo not shown) | -12.5%
30 | COc1ccccc1C/C(N)=N/OC(=O)COc1cccc(C)c1C | 4.05%
31 | Cc1ccc(C(=O)CCc2ccc(N)cc2)cc1 | -6.3%
32 | CC(NC(=O)NC(=O)c1ccc(Cl)cc1Cl)C1CC1 (stereo not shown) | 0.177%
33 | COc1ccc([N+](=O)[O-])cc1NC(=O)Cc1c(Cl)cccc1Cl | 25.1%
34 | Cc1ccc2[nH]nc(C(=O)N3CCCC(C(=O)c4ccc(Cl)cc4)C3)c2c1 (stereo not shown) | 22.4%
35 | Nc1nc(C23CC4CCC(CC(C4)C2)C3)cs1 | 1.51%
36 | CCOc1ccc(N(CC(=O)NC2CCCCC2)S(=O)(=O)c2ccccc2)cc1 | 15.1%
37 | Cc1ccc(C(=O)CSc2nnnn2C(C)C)c(C)c1 | -3.38%
38 | COC(=O)c1sc(C(=O)OC)c(C(=O)OC)c1C(=O)OC | -1.17%
39 | CC12CCC(C(=O)NCc3cccnc3)(OC1=O)C2(C)C (stereo not shown) | 6.67%
40 | O=S(=O)(c1ccccc1)c1ccccc1/C=N\O | -7.44%
41 | CC1SC(c2ccc(Cl)cc2Cl)NC1=O (stereo not shown) | 11.4%
42 | Cc1cc(C)c(NC(=O)C2CCCN2CCOC(=O)c2cccc([N+](=O)[O-])c2)c(C)c1.Cl (stereo not shown) | -63.2%
43 | Cc1ccccc1OCCn1c(S(=O)(=O)O)nc2c(N)ncnc21 | 24.7%
